Assay results from publication PMC4336329 (PLoS ONE, 2015).
In all, about 310,000 compounds went through this assay and about 14,000 (4.5%) showed an effect of 50% or more. Effects have a minus sign here. This is one part of the list.

Each molecule was assayed against human ether-à-go-go-related gene (hERG) potassium channel (human, UniProt Q12809) (assay: primary screen, population patch clamp on CHO cells stably expressing hERG).
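Also: peak tail current of the secondary pulse compared with the same well before compound.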

human ether-à-go-go-related gene (hERG) potassium channel, sequence (Q12809 whole entry, looked up): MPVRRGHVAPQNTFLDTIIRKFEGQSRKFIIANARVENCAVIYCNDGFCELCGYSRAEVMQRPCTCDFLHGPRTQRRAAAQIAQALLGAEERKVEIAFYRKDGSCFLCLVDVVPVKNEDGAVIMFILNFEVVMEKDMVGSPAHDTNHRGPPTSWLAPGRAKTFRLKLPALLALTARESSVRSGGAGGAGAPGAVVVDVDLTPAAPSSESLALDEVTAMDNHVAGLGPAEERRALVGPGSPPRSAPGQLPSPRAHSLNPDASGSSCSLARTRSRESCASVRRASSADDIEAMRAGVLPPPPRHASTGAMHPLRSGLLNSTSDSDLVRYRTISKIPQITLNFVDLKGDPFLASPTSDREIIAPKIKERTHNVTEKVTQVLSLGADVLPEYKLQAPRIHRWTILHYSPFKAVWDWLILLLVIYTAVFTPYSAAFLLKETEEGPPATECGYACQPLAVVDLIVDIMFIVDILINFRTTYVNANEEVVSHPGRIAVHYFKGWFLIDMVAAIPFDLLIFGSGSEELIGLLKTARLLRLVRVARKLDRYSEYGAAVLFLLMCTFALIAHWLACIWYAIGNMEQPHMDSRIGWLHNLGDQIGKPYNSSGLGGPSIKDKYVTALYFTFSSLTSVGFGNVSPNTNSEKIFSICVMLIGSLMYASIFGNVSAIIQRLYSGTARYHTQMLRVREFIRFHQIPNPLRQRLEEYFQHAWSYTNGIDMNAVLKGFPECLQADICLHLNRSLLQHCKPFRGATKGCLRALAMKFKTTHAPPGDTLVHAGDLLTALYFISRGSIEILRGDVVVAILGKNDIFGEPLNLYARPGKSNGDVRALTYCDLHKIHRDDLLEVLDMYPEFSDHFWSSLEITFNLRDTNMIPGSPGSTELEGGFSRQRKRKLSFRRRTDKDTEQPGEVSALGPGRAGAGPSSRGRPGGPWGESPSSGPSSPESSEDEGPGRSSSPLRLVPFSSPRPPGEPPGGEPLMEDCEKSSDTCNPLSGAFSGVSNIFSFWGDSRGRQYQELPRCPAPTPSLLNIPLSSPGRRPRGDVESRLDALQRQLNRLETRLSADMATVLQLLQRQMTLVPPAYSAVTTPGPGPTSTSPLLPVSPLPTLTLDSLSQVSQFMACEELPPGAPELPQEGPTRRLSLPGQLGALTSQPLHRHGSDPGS

| Compound | hERG current change (%, negative = inhibition) at 10uM |
| --- | --- |
| COc1ccc(N2CCN(C(=O)CSc3ccc([N+](=O)[O-])cc3)CC2)cc1 | -68.4% |
| Oc1c(N=Nc2ccccn2)ccc2ccccc12 | 9.24% |
| CCCC(=O)N1CCN(c2nc3ccc(Br)cc3s2)CC1 | -71% |
| Cc1ccc(/C=C/c2onc(C)c2S(=O)(=O)N2CCC(C(=O)N3CCN(C)CC3)CC2)cc1 | -10.9% |
| Nc1nc(SCC(=O)Nc2ccc(Cl)c([N+](=O)[O-])c2)n[nH]1 | 0.58% |
| COc1ccc(S(=O)(=O)NCc2cccnc2)cc1NC(=O)c1ccc(C)cc1 | -17.6% |
| CC1=C(C)NC(=S)SC1 | 13.9% |
| C=CC[C@@H]1Cc2c(Br)ccc(Br)c2[C@@H](CC=C)N1.Cl | 17.7% |
| O=C(CSC(=S)N1CCOCC1)c1ccccc1 | 2.75% |
| Cc1cccc(C(C)C)c1NC(=O)CN1C(=O)NC(Cc2ccccc2)C1=O (centres unmarked) | -3.13% |
| CCOC(=O)c1ccc(NC(=O)NNS(=O)(=O)c2cc(OC)ccc2OC)cc1 | 56% |
| CC1CCN(S(=O)(=O)c2ccc(C(=O)Nc3ncccc3O)cc2)CC1 | -1.81% |
| Cl.O=C(c1ccc(Cn2cc(Cl)cn2)o1)N1CCN(Cc2ccc3c(c2)OCO3)CC1 | -41.5% |
| COC(=O)N/N=C/c1c[nH]c2ccccc12 | 14.5% |
| O=C(c1ccc2nc(Cc3cccc(Cl)c3)oc2c1)N1CCC(CO)CC1 | -6.41% |
| CCOC(=O)CN1C(=O)N[C@@H](c2cccc(F)c2)C(C(=O)OC)=C1C | -13.4% |
| CCCn1c(=O)c2ccccc2n2c(SCC(N)=O)nnc12 | 4.57% |
| Cc1cc(NCc2ccccc2)n2ncnc2n1 | 19.6% |
| C/C(CC(=O)N(C(C)C)C(C)C)=N\NC(=O)COc1ccc(Cl)cc1Cl | -22.6% |
| COc1ccccc1C1=NC(c2ccc(C)cc2)N=C1C (centres unmarked) | -32% |
| O=C(Nc1cnccn1)c1ccc(Cl)cc1 | 9.07% |
| Cc1ccc(-n2nnnc2SCC(=O)Nc2cccc(NC(=O)c3ccco3)c2)cc1C | -6.49% |
| COc1ccccc1NC(=O)Cn1cnc2sc(C(=O)NCc3ccco3)c(C)c2c1=O | 13% |

| Compound | hERG current change (%, negative = inhibition) at 10uM |
| --- | --- |
| Fc1ccc(-c2ccc(/C=N\n3cnnc3)o2)cc1Cl | -10.8% |
| O=C(NC1CCCCC1)C(c1ccc(F)cc1)N(Cc1ccccc1)C(=O)CN1C(=O)c2ccccc2S1(=O)=O (centres unmarked) | 8.7% |
| O=c1/c(=C\c2ccc3c(c2)OCO3)sc2n1CCCN=2 | -6.03% |
| COc1cccc(-n2nnnc2S(C)(=O)=O)c1 | -13.5% |
| Cc1ccccc1N/N=C/c1ccc(N2CCOCC2)cc1 | -2.55% |
| COc1ccccc1C(=O)N/N=C/C(C)=C/c1ccccc1 | -73.8% |
| O=[N+]([O-])c1cccc(-c2nc(-c3ccncc3)no2)c1 | -21.8% |
| COc1ccc(C(=O)NCC2CCCO2)cc1OC (centres unmarked) | 19.1% |
| CC(C)Cn1c(SCC(=O)NC(=O)Nc2ccc3c(c2)OCCO3)nc2ccccc2c1=O | 1.72% |
| COc1ccc(C(OC(=O)c2ccco2)C(=O)NC2CCCC2)cc1OC (centres unmarked) | 4.34% |
| Cc1ccccc1NC(=O)c1ccc(CN(c2ccccc2)S(=O)(=O)c2ccccc2)cc1 | 12.3% |
| O=C(CCCn1c(=S)[nH]c2cc3c(cc2c1=O)OCO3)NC1CC1 | 13.3% |
| COc1ccc(OCCCC(=O)Nc2nccs2)cc1 | 7.39% |
| COc1ccc(NC(=O)CCN2CCN(S(=O)(=O)c3cc(Cl)ccc3OC)CC2)cc1 | -27.7% |
| NC1=NC[C@@H](Cc2ccc(O)cc2)N1CCCCC1CCCCC1 | -18.6% |
| C/C=C/c1ccc(OCCOCCOc2cccc3cccnc23)c(OC)c1 | -50.5% |
| COc1ccccc1NC(=O)c1c[nH]c2ccccc12 | 6.06% |
| O=C(CSc1ccc2nnc(-c3cccnc3)n2n1)Nc1ccc(F)cc1 | -31.5% |
| CCOC(=O)c1cccc(NC(=O)CCc2nnc3ccc(N4CCCCC4)nn23)c1 | 7.86% |
| O=C(Nc1ccc(SC(F)F)cc1)c1ccc2nccnc2c1 | -17.1% |
| COc1ccc(-c2cc(C(=O)Nc3ccccc3SC)no2)cc1OC | 0.708% |
| O=C1CCC(C(=O)N2CCC(CCO)CC2)CN1Cc1ccc(Cl)cc1 (centres unmarked) | -6.49% |
| Cc1ccc(O)c(C2=Nc3ccccc3N=C(c3ccco3)C2)c1 | 10.4% |

| Compound | hERG current change (%, negative = inhibition) at 10uM |
| --- | --- |
| COC(=O)CSc1nnc(-c2ccc(S(=O)(=O)N3CCCC3)cc2)o1 | 18.6% |
| COc1cccc(COc2ccc3c(C)c(Cc4ccccc4)c(=O)oc3c2)c1 | 6.98% |
| Cc1c(C(=O)N/N=C/c2ccccc2)sc(=S)n1C | 2.95% |
| CCC(C)(C)NC(=O)CN(C(=O)CNS(=O)(=O)c1ccccc1)c1ccc2c(c1)OCCO2 | 6.92% |
| Cc1ccccc1CSCC(=O)c1c(N)n(C)c(=O)n(C)c1=O | -17.5% |
| CCN(CC)C(=O)C[n+]1cccc(C(N)=O)c1 | 9.81% |
| CC1CCCCC1NC(=O)CCc1nc2sc3c(c2c(=O)[nH]1)CCCC3 (centres unmarked) | -15.3% |
| COc1ccc(-n2cc(-c3ccc(Br)cc3)[nH]c2=S)cc1 | 18% |
| CCn1c(SCC(=O)NCC2CCCO2)nc2c(c1=O)SCC2 (centres unmarked) | 20% |
| NC(=O)CCN(Cc1ccccc1)S(=O)(=O)c1ccccc1 | -9.98% |
| CC(C)(C)c1ccc(-c2nn(CCC#N)cc2/C=N/O)cc1 | 6.96% |
| COc1ccc(NC(=O)c2ccc(OCC3CCCO3)cc2)cc1OC (centres unmarked) | 5.92% |
| Cc1ccc(NC(=O)CSc2ccc(-c3ccccn3)nn2)cc1 | 2% |
| CC/C(=N\NC(=O)c1c[nH]c2ccccc12)c1cccs1 | 10.9% |
| N#Cc1cc2c(nc1SCC(=O)O)CCCCC2 | 3.05% |
| O=C(CN1C(=O)NC2(CCCc3ccccc32)C1=O)N1CCCCC1 (centres unmarked) | 22.2% |
| CCOC(=O)N1CCN(C(=O)c2cccn3c(=O)c4c5c(sc4nc23)CCCC5)CC1 | -44.7% |
| COc1cc(OC)cc(C(=O)Nc2ccc(S(=O)(=O)Nc3cnc4ccccc4n3)cc2)c1 | 3.23% |
| CCc1ccc(NC(=O)C2CCCN(S(=O)(=O)c3c(C)[nH]c(=O)[nH]c3=O)C2)cc1 (centres unmarked) | 19.4% |
| N/C(=N/S(=O)(=O)c1ccccc1)c1cccc([N+](=O)[O-])c1 | -15.8% |
| CN1CCC2(CC1)CC(NC=O)c1ccccc1O2 (centres unmarked) | 25.9% |
| C[C@H](NC(=O)[C@H]1N2C(=O)c3ccccc3C2SC1(C)C)C(=O)NCc1ccncc1 (some centres unmarked) | 33.8% |
| CN1C2CCC1CC(OC(=O)c1ccc(Cl)cc1)C2.Cl (centres unmarked) | -48.9% |

| Compound | hERG current change (%, negative = inhibition) at 10uM |
| --- | --- |
| CCN(CC)S(=O)(=O)c1ccc(C(=O)OCC(=O)NCc2ccco2)cc1 | -28.5% |
| OCC1(Cc2ccccc2)CCCN(Cc2ccn[nH]2)C1 (centres unmarked) | -11.8% |
| O=C(N/N=C/c1cccnc1)c1cc(-c2cccs2)nc2ccccc12 | -20% |
| COC(=O)c1cnn(-c2ccccc2)c1C(OC)OC | 6.12% |
| CCOc1nnc(C)c2c(C)n(-c3cccc(OC)c3)nc12 | 3.25% |
| CCSc1nnc(NC(=O)COc2ccccc2)s1 | 4.88% |
| N#CC1(c2ccccc2)CCN(C2CC(=O)N(c3cccc(F)c3)C2=O)CC1 (centres unmarked) | 17.4% |
| O=C(Cn1c(=O)oc2ccccc21)Nc1ccc(Cl)cc1Cl | 9.56% |
| COc1ccc(C2NC(=O)NC(C)=C2C(=O)OCc2ccccc2)cc1 (centres unmarked) | 2.79% |
| O=c1[nH]c(CN(CCc2ccccc2)S(=O)(=O)c2ccc(Cl)cc2)nc2ccccc12 | -1.14% |
| Cc1nc2ccccc2n1CC(=O)NC1CCCC1 | 14% |
| COc1cc(/C(O)=C(\C#N)c2nc3ccccc3[nH]2)cc(OC)c1OC | 17.7% |
| Cc1cccc(N(C)S(=O)(=O)c2ccc3[nH]cc(C(=O)N4CCOCC4)c(=O)c3c2)c1 | 6.19% |
| CCO[C@H]1OC(C(=O)N2CCN(C)CC2)=C[C@@H](c2ccc(C(F)(F)F)cc2)[C@@H]1CCCO | 8.75% |
| COC(=O)c1ccc(C(=O)N(CCN(C)C)c2nc3c(Cl)cccc3s2)cc1.Cl | -54.9% |
| Cc1ccc(C)c(S(=O)(=O)N/N=C/c2ccc(F)cc2)c1 | -9.43% |
| CCNC(=S)NNC(=O)c1ccc(OC(F)F)cc1 | 10.8% |
| CC(=O)Oc1ccc(C2C3=C(CC(C)(C)CC3=O)Nc3cc4c(cc32)OCCO4)cc1 (centres unmarked) | 18.5% |
| CCOc1cc(NC(=O)c2ccco2)c(OCC)cc1NC(=O)Cc1ccc(OC)c(OC)c1 | -5.23% |
| CCOc1ccc(NC(=O)CCN2CCN(S(=O)(=O)c3ccc(OC)cc3)CC2)cc1 | -28.8% |
